Values marked as one replicate rest on one cluster of the flow cell; about a third of the high ones do not repeat.
Each sequence was assayed on ATP (assay: switch fluorescence ratio, 500 uM ATP over buffer (Cy3 cluster intensity, sum of 5 cycles each) (fold (ratio)); higher = stronger signal-on switching upon ATP binding; sequences stand for … in TCGTCGGCAGCGTCAGATGTGTATAAGAGACAGTTTTTTTTTTTTTTTTTTTTTTTTT…TC). Settings: aptamer strand: ATP DNA aptamer (quencher-CACCTGGGGGAGTATTGCGGAGGAAGG + anchor), 100 nM annealed; ATP concentration: 500 uM; one replicate.
In short: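 Clusters with intensities outside 100-1000 RFU were excluded. The remaining Cy3-labelled switching-strand clusters on a modified Illumina MiSeq flow-cell had been annealed to 100 nM quencher-labelled ATP aptamer and imaged in selection buffer, then after 15 min with 500 uM ATP at 22 °C, for five cycles separated by NaOH stripping and re-annealing. The fluorescence ratio, averaged per switch-domain sequence, is each cluster's summed target-cycle Cy3 intensity over its summed buffer-cycle Cy3 intensity.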
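Further: ATP exposure 15 min at 22 °C before imaging.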

| Sequence | switch fluorescence ratio |
| --- | --- |
| ATAAGCGAGA | 1.04 |
| ATAAGCTTGA | 1.04 |
| ATAAGTCGTA | 0.929 |
| ATAAGTCTGC | 0.964 |
| ATAAGTGTGA | 0.997 |
| ATAATATGGG | 0.995 |
| ATAATCGACA | 1.01 |
| ATAATGAAC | 1.03 |
| ATAATTACGT | 1.04 |
| ATAATTGCCT | 1.07 |
| ATACAAAGGA | 1.03 |
| ATACAATTAT | 1.03 |
| ATACAGAACC | 1.07 |
| ATACAGAGAT | 0.989 |
| ATACAGCATT | 1.07 |
| ATACCAAATC | 1.01 |
| ATACCAGCGG | 1.02 |
| ATACCAGTGG | 0.965 |
| ATACCCGACG | 1.34 |
| ATACCGCTT | 1.63 |
| ATACCGTCAA | 1.3 |
| ATACCGTTTG | 1.01 |
| ATACCTGGTT | 0.949 |
| ATACGAGCAT | 1.09 |
| ATACGCCAAA | 1.13 |

| Sequence | switch fluorescence ratio |
| --- | --- |
| ATACGGGTGT | 1.06 |
| ATACGTAGCT | 1.12 |
| ATACGTCACA | 1.57 |
| ATACTACGGC | 1.16 |
| ATACTAGGAT | 1.01 |
| ATACTAGGGT | 1.02 |
| ATACTAGTTA | 1.02 |
| ATACTATTGC | 1.06 |
| ATACTGGCCA | 1.04 |
| ATACTGTGAT | 1.07 |
| ATACTTGTCA | 0.961 |
| ATAGACTGCT | 1.01 |
| ATAGAGAAGT | 0.992 |
| ATAGAGGTAT | 0.985 |
| ATAGAGTTGG | 0.973 |
| ATAGATGATG | 0.992 |
| ATAGCAGCAA | 1.73 |
| ATAGCCGCTG | 1.03 |
| ATAGCTATGG | 1.08 |
| ATAGCTCGAA | 1 |
| ATAGGAAACT | 0.984 |
| ATAGGACTCG | 0.981 |
| ATAGGCAGTC | 0.957 |
| ATAGGCATGG | 1 |
| ATAGGCGCGT | 1.01 |

| Sequence | switch fluorescence ratio |
| --- | --- |
| ATAGGCGGA | 0.905 |
| ATAGGCTGAG | 0.972 |
| ATAGGGGAGG | 1.02 |
| ATAGGGGGT | 0.986 |
| ATAGGTAGAG | 0.936 |
| ATAGGTATTA | 0.971 |
| ATAGGTATTG | 0.988 |
| ATAGGTCAGA | 0.997 |
| ATAGGTTGGC | 0.966 |
| ATAGTAAATA | 1.01 |
| ATAGTAATTA | 0.97 |
| ATAGTAATTG | 0.995 |
| ATAGTAGGAG | 0.964 |
| ATAGTAGTGC | 1.05 |
| ATAGTCATAA | 0.953 |
| ATAGTCGGT | 0.961 |
| ATAGTCTGTG | 0.961 |
| ATAGTGGCT | 1.02 |
| ATAGTTCGT | 0.96 |
| ATAGTTTATT | 0.993 |
| ATATAAAAGG | 1 |
| ATATAACGGT | 1 |
| ATATACTAAC | 1.17 |
| ATATACTGG | 1.06 |
| ATATACTTGG | 1.05 |

| Sequence | switch fluorescence ratio |
| --- | --- |
| ATATAGGGGT | 1 |
| ATATAGGTT | 0.978 |
| ATATATCATG | 1.04 |
| ATATATCGG | 0.965 |
| ATATATTAAC | 0.987 |
| ATATCATTGA | 1.01 |
| ATATCCATG | 1.02 |
| ATATCCGTGG | 1.01 |
| ATATCCTGAT | 1.01 |
| ATATCTACAG | 0.992 |
| ATATCTAGAT | 0.976 |
| ATATGCAGTG | 0.977 |
| ATATGCGACC | 1.2 |
| ATATGGCCAT | 0.982 |
| ATATGGGCTC | 0.97 |
| ATATGGGGG | 0.959 |
| ATATGGGTGC | 1.01 |
| ATATGGTCA | 1.01 |
| ATATGTTAGG | 0.995 |
| ATATGTTTGC | 1.02 |
| ATATTACGGT | 1.07 |
| ATATTCAAGT | 1.01 |
| ATATTCCAAG | 0.972 |
| ATATTGGGTC | 1.03 |
| ATATTT | 1 |
